# According to PubChem BioAssay AID493208 (National Center for Advancing Translational Sciences (NCATS), 2011):
# Out of some 44,000 compounds screened, about 340 (0.77%) were called active. Another 5% or so got no clear call; they are omitted. Calls come from the whole dose curve; as a rule, active = well fitted inhibition curve with a large enough effect; inconclusive = small, poorly fitted or top-dose-only effect; inactive = flat fitted curve, though single readings scatter. The list shows a part of the results.
# Experiment: Acumen qHTS Assay for Inhibitors of the mTORC1 Signaling Pathway in MEF (Tsc2-/-, p53-/-) Cells: Sytravon;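 note: plate controls were DMSO for no effect and rapamycin for full effect; nearly all actives have a fitted effect of over 50% in size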
# Conditions: phospho-rpS6 immunofluorescence/PI, 24 h; series mostly up to 38.3 µM; activity change, negative = inhibition: at the top concentration
# Method in brief: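 Read-out: phospho-S6 Alexa-488 intensity over PI intensity per well, scored as % active cells using thresholds from rapamycin (7.5 nM) and DMSO controls. Tsc2-/-, p53-/- MEFs exposed to compound for 24 h; PI cell count recorded as viability.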
row,Compound,"activity change, negative = inhibition"
1,CCC1CN(C(=O)N2CCC(C(=O)N3CCN(c4ccccc4)CC3)CC2)c2ccccc2O1 (stereo not given),inactive: 3.66%
2,CCOc1ccc(-n2c(SCC(=O)NCc3ccccc3)nc3n[nH]c(C)c3c2=N)cc1,inactive: -12.4%
3,CCOC(=O)N1CCc2c(sc(NCc3ccc(N(CC)CC)cc3)c2C(=O)Nc2cc(OC)ccc2OC)C1,inactive: -0.694%
4,Cc1cc(C)n(C(C)CC(=O)Nc2ccc(Cl)cc2C)n1 (stereo not given),inactive: 7.97%
5,COc1cccc(CN2C(=O)C3(SCC(=O)N3c3ccc(C)c(Cl)c3)c3ccccc32)c1 (stereo not given),inactive: -4.82%
6,CC1Cc2cc(S(=O)(=O)CCC(=O)Nc3ccccc3F)ccc2N1C(=O)C1CC1 (stereo not given),inactive: -3.19%
7,CCOC(=O)c1cc(-c2ccc(C)cc2)n(CCCC(=O)Nc2cc(C)ccc2C)c1,inactive: -7.21%
8,CCCCC(=O)N1CCc2cc(OC)c(OC)cc2C1COc1ccc(C(=O)OCC)cc1 (stereo not given),inactive: 10.9%
9,Cc1cccc(C(=O)n2nc(C)c(S(=O)(=O)N3CCOCC3)c2C)c1,inactive: -7.66%
10,CCOc1ccccc1NS(=O)(=O)c1cc2[nH]c(=O)c(=O)[nH]c2cc1C,inactive: 1.06%
11,COc1ccc(Cn2ccc3nc(C)c(C(=O)Nc4cc(OC)c(OC)c(OC)c4)cc3c2=O)cc1,inactive: -10.9%
12,CCOc1ccc(Sc2cc(C(=O)NCc3ccc(C)cc3)c3ccccc3n2)cc1,inactive: 0.294%
13,COCCCn1c(=N)c(C(=O)NC2CCCC2)cc2c(=O)n3cccc(C)c3nc21,inactive: -0.505%
14,Nc1c(C(=O)NCc2cccs2)nnn1CC(=O)Nc1cccc(F)c1,inactive: -8.07%
15,COC(=O)c1scc(-c2ccc(C)cc2)c1S(=O)(=O)N1CCN(c2ccc(F)cc2)CC1,inactive: -1.39%
16,Cc1cc(C)c(S(=O)(=O)NCCc2sc3nc(-c4ccc(F)cc4)nn3c2C)c(C)c1,inactive: -0.445%
17,CCC1CCCCN1C(=O)c1c[nH]c2ccc(S(=O)(=O)Nc3cccc(OC)c3)cc2c1=O (stereo not given),inactive: 0.745%
18,O=C(NCc1ccco1)c1ccc2c(c1)N(Cc1ccccc1)C(=O)c1ccccc1S2,inactive: 2.64%
19,O=C(NC1CCCCC1)c1ccc(CSc2nc3cccnc3n2Cc2cccc(F)c2)cc1,inactive: -0.759%
20,Cc1cc(C)cc(-n2ccn(CC(=O)c3ccc(F)cc3)c(=O)c2=O)c1,inactive: 4%

row,Compound,"activity change, negative = inhibition"
1,CCOc1ccc(NC(=O)CCc2c(C)nc3cc(-c4ccccc4OC)nn3c2C)cc1,inactive: -5.76%
2,COC(=O)c1ccc(CSc2c(C(C)C)cnc3c2c(=O)n(C)c(=O)n3C)cc1,inactive: 10.7%
3,Cc1c(NC(=O)Nc2ccc(Cl)c(Cl)c2)sc2nc3n(c(=O)c12)CCC(C)CC3 (stereo not given),inactive: -3.9%
4,Cc1ccc(N(C)S(=O)(=O)c2ccc3[nH]c(=O)ccc3c2)cc1,inactive: -7.39%
5,O=C(O)c1ccc(NS(=O)(=O)c2ccc(Cl)c(C(=O)Nc3ccccc3)c2)cc1,inactive: -8.87%
6,Cc1ccc(NC(=O)c2sc3ncnc(N(C)C4CCCCC4)c3c2C)c(C)c1,inactive: 1.72%
7,O=C(c1ccc(CS(=O)(=O)c2ccc(Br)cc2)o1)N1CCN(c2ccc(F)cc2)CC1,inactive: -12.9%
8,COc1ccc(NC(=O)c2cnn(-c3ccc(C)c(C)c3)c2C2CCNCC2)cc1OC,inactive: -4.56%
9,O=C(Nc1nc2n(n1)C(c1ccc(F)cc1)C=C(c1ccc(Cl)cc1)N2)c1ccc([N+](=O)[O-])cc1 (stereo not given),inactive: 1.72%
10,Cc1cccc(C2=Nc3ccccc3N=C(c3cc(Cl)ccc3O)C2)c1,inactive: 16.1%
11,Cc1oc2c(cc(NS(=O)(=O)c3ccc(C(C)C)cc3)c3ccccc32)c1C(=O)OCc1ccccc1,inactive: -7.43%
12,O=C(Nc1cccc(Br)c1)N1CCN2CCCCC2C1 (stereo not given),inactive: 0.0523%
13,CCCNC(=O)Cn1nc(-c2ccc(OC)cc2)c2cnc3ccc(F)cc3c21,inactive: -5.4%
14,COc1ccc(OC)c(CNC(=O)c2cc3c(Cl)nc4ccccc4c3s2)c1,inactive: -17.9%
15,Cc1cccc(NC(=O)/C(C#N)=C/c2ccco2)c1,inactive: -4.32%
16,CCOc1ccc(-n2c(C)nc3cc(C(=O)NC4CCCC4)ccc32)cc1,inactive: -0.681%
17,COc1ccccc1CC(=O)Nc1ccc2nc(Nc3cccc(C(F)(F)F)c3)cc(C)c2c1,inactive: -6.73%
18,COc1ccc(CNC(=O)Cn2c(=O)n3nc(-c4ccc(OC)cc4)nc3c3ccccc32)cc1,inactive: -4.51%
19,COc1ccc(NC(=O)C(c2ccccc2)N(C)C(=O)/C=C\c2ccc3c(c2)OCO3)cc1 (stereo not given),inactive: -23.4%
20,CCOc1ccc(C(=O)Nc2ccc3nc(Nc4cccc(C(F)(F)F)c4)cc(C)c3c2)cc1OCC,inactive: 0.941%

row,Compound,"activity change, negative = inhibition"
1,COc1ccc(C(CC(=O)Nc2cc(Cl)c(OC)cc2OC)N2Cc3ccccc3C2=O)cc1 (stereo not given),inactive: -3.92%
2,COc1ccc(-c2c(C)nn3c(C(F)(F)F)cc(-c4ccc(C)cc4)nc23)cc1,inactive: -0.0881%
3,CCOc1ccc(NC(=O)N2CC3CCCN3c3ccccc32)cc1 (stereo not given),inactive: -6.9%
4,CC(=O)NNc1ncnc2c1cnn2-c1ccccc1,inactive: 4.83%
5,Cc1ccccc1NS(=O)(=O)c1ccc2[nH]cc(C(=O)NCCc3ccccc3)c(=O)c2c1,inactive: 0.166%
6,COC(=O)c1cnc(N2CCN(c3ccc(OC)cc3)CC2)c2ccccc12,inactive: 5.08%
7,CCCCc1ccc(NC(=O)CSc2nc3ccccc3nc2N2CCCCC2)cc1,inactive: -2.4%
8,CCOC(=O)c1ccc(NC(=O)CS(=O)(=O)Cc2nc(-c3ccc(C)cc3)oc2C)cc1,inactive: -7.95%
9,COC(=O)c1c(-c2ccc(Cl)cc2)noc1N1CCN(c2ccc(C(C)=O)cc2)CC1,inactive: -15.1%
10,CCCNC(=O)CCc1c(C)nc2nc(CNC(=O)c3ccccc3)nn2c1C,inactive: -5.56%
11,CCOc1ccc(NC(=O)C(CC)n2nc(C)c3c(C)n(-c4ccccc4)nc3c2=O)cc1 (stereo not given),inactive: 0.108%
12,Cc1ccc(NC(=O)CN2C(=O)CC(c3ccco3)Sc3ccccc32)cc1Cl (stereo not given),inactive: 0.997%
13,COc1cc(OC)c(NC(=O)Nc2ccc3c(c2)N(C)C(=O)c2ccccc2S3)cc1Cl,inactive: -18.5%
14,Cc1ccc(-c2onc(C)c2C)cc1S(=O)(=O)N1CCN(c2ccccc2F)CC1,inactive: 5.41%
15,COc1cc(OC)cc(-n2c(=O)c3sccc3n(Cc3ccc(F)cc3)c2=O)c1,inactive: -1.66%
16,COc1cc(C(CC(=O)NCc2ccccc2Cl)N2Cc3ccccc3C2=O)cc(OC)c1OC (stereo not given),inactive: -0.283%
17,COc1cccc(NC(=O)CCNC(=O)Cn2cnc3ccccc3c2=O)c1,inactive: 1.85%
18,CCn1c2ccccc2c2cc(CN3CCN(Cc4cccc(Cl)c4)CC3)ccc21,inactive: -9.35%
19,COC(=O)c1ccccc1NC(=O)CCCn1nc(C)c2c(C)n(-c3ccccc3)nc2c1=O,inactive: -3.62%
20,Cc1ccc(C(=O)O)cc1NC(=O)c1nsc2ccccc12,inactive: -5.71%
